Test results reported in PubChem BioAssay AID1346428 (National Center for Advancing Translational Sciences (NCATS), 2018).
The whole screen tested about 48,000 compounds, of which about 1,200 (2.5%) were called active. Not shown: some 2% with an inconclusive outcome.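 How the source made its calls: active means activation of at least 60% and not above a set upper limit (about 1 call in 100 departs from these limits); inconclusive means activation of 40% to 60%, or above that upper limit; inactive means activation under 40%.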 The list shows a part of the results.

biological target: Probable G-protein coupled receptor 32 (Homo sapiens) (UniProt O75388); test: qHTS for Agonists of Human Resolvin D1 Receptor DRV1; settings: CHO-K1 GPR32 beta-arrestin PathHunter luminescence, 90 min; at 76.9 µM; stronger effect = higher value; zero percent set by DMSO-only wells; further: 0% is about no effect
How it was run: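 Readings come from a cell-based beta-arrestin complementation format: CHO-K1 GPR32 stable cells (2,500/well) treated 90 min with compounds, then beta-Gal substrate added for 1 h before chemiluminescence imaging.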

Chain of UniProt O75388 (O75388 whole entry, looked up): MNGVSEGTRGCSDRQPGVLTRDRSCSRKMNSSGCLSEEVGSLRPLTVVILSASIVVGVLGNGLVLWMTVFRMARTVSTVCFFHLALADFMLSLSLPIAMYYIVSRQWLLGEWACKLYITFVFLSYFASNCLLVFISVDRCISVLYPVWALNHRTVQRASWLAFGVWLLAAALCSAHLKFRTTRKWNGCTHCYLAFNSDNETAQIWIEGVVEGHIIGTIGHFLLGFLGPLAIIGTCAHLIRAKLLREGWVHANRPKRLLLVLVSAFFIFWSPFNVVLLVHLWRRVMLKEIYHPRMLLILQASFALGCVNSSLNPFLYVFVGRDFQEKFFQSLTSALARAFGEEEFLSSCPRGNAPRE

Row | Compound | activation
1 | CCc1ccc(NC(=O)c2cnc3c(-c4ccccc4)c(C)nn3c2C)cc1 | inactive: -6.36%
2 | CC(=O)c1ccc(NC(=O)c2ccc(-c3nc(CSc4ccc(C)cc4)c(C)o3)cc2)cc1 | inactive: -3.97%
3 | O=C(Nc1ccccc1Cl)N1CCC2(CC1)Oc1ccccc1C(=O)N2Cc1ccc(F)cc1 | inactive: -10.3%
4 | COc1cccc(Cn2c(C)c(CNCc3cccc(C)c3)c(C(=O)O)c2C)c1 | inactive: -1.27%
5 | O=C(CCC1N=C2c3ccccc3N=C(SCc3ccc(Cl)cc3)N2C1=O)NCc1cccs1 (stereo unspecified) | inactive: -20.5%
6 | COc1ccc(OCC(O)Cn2c(=N)n(CCN3CCCCC3)c3ccccc32)cc1 (stereo unspecified) | inactive: 4.48%
7 | Cc1ccc(NS(=O)(=O)c2ccc3oc(=O)c4ncn(C)c4c3c2)cc1C | inactive: 5.19%
8 | CN(C)c1ccc(CNC(=O)CN2C(=O)C3CCCCN3c3ccc(C(=O)N4CCCC4)cc32)cc1 (stereo unspecified) | inactive: -10.8%
9 | CCC(=O)N1CCc2cc(S(=O)(=O)NC(CC(C)C)C(=O)Nc3cccc(C)c3C)ccc21 (stereo unspecified) | inactive: -8.98%
10 | COc1ccccc1C(=O)n1nc(-c2ccccc2)nc1NCc1ccc(Cl)cc1 | inactive: 3.11%
11 | O=C(CCc1ccccc1)NC1CC(=O)N(c2cccc(F)c2)C1 (stereo unspecified) | inactive: -5.72%
12 | Cc1ccc(N2CCN(C(=O)c3cccn4c(=O)c5ccc(Cl)cc5nc34)CC2C)cc1 (stereo unspecified) | inactive: -11.2%
13 | CCC(C)NC(=O)c1cc2n(n1)CCCN(Cc1ccc(C)cc1)C2=O (stereo unspecified) | inactive: 24%
14 | Cc1ccc(S(=O)(=O)C(CNC(=O)C(=O)NCCc2ccc(Cl)cc2)c2ccco2)cc1 (stereo unspecified) | inactive: -1.2%
15 | CCn1cc(C(=O)N2CCN(c3ccccc3)CC2)c(=O)c2cc(S(=O)(=O)N(C)C)ccc21 | inactive: 7.11%
16 | Cc1ccc(Nc2nc(N)nc(CSc3nc4ccccc4s3)n2)cc1 | active: 82.9%
17 | COc1ccc(C(CNC(=O)c2oc3cc(C)c(C)cc3c2C)N2CCCCC2)cc1 (stereo unspecified) | inactive: 6.91%
18 | O=C(Cc1ccc(F)cc1)NCCc1csc2nc(-c3ccccc3F)nn12 | active: 61.7%
19 | COc1ccc(CCNS(=O)(=O)c2c(C)nc3sccn3c2=O)cc1OC | inactive: -3.55%
20 | Cc1c2cnn(CC(=O)NCc3ccc(Cl)cc3)c(=O)c2c(C)n1Cc1ccc(F)cc1 | inactive: 0.152%
21 | Cc1cc(NS(=O)(=O)c2ccc(NC(=O)COc3ccccc3Br)cc2)no1 | inactive: 28.8%
22 | Cc1ccccc1Nc1nn2c(=O)c3ccc(C(=O)NCc4cccs4)cc3nc2s1 | inactive: -6.92%
23 | Cc1cc(C)cc(NC(=O)CSc2ccc(-c3cccs3)nn2)c1 | inactive: -9.28%
24 | CCN(CCCNC(=O)c1cc2c(=O)n(C)c3ccccc3c2s1)c1ccccc1 | active: 70.3%
25 | CCc1ccccc1Nc1nn2c(=O)c3ccc(C(=O)NC(C)C)cc3nc2s1 | inactive: 2.75%
26 | O=C(Cn1c(=O)n(Cc2ccco2)c(=O)c2oc3ccccc3c21)Nc1ccccc1 | inactive: -1.91%

Row | Compound | activation
27 | COc1cc(NC(=O)C2CCN(c3cnccn3)CC2)cc(OC)c1 | inactive: -34.1%
28 | COc1ccccc1N1CCN(C(=O)C2CCN(S(=O)(=O)c3cn(C)cn3)CC2)CC1 | inactive: -5.08%
29 | COc1ccc(-c2cc(=O)c3c(O)cc(O[C@@H]4O[C@H](CO[C@@H]5O[C@@H](C)[C@H](O)[C@@H](O)[C@H]5O)[C@@H](O)[C@H](O)[C@H]4O)cc3o2)cc1O | inactive: 11.7%
30 | COc1ccccc1NC(=O)CN1C(=O)C(c2ccc(F)cc2)=NC12CCCCC2 | inactive: -32.1%
31 | CCOCCCNC(=O)c1ccc2c(=O)n(CCc3ccccc3)c(=O)[nH]c2c1 | inactive: -3.9%
32 | CCc1ccc2oc(-c3cc(NC(=O)c4cc(OC)c(OC)c(OC)c4)ccc3O)nc2c1 | inactive: 10.7%
33 | COc1cccc(N2CCN(C(=O)c3cnn(-c4ccccc4Cl)c3C3CCN(C(=O)OC(C)(C)C)CC3)CC2)c1 | inactive: -32.1%
34 | COc1cccc(NC(=O)C2CCC(CNS(=O)(=O)c3csc(C(N)=O)c3)CC2)c1 (stereo unspecified) | inactive: 5.98%
35 | CC(=O)c1ccc(NC(=O)CSc2nc(=O)n(Cc3ccccn3)c3c2CCC3)cc1 | inactive: -2.67%
36 | CCOC(=O)Cc1ccc(NC(=O)NC(C)c2c(-n3cccc3)sc(C)c2C)cc1 (stereo unspecified) | inactive: -22.9%
37 | COc1ccc(-c2onc(C)c2C)cc1S(=O)(=O)NCCc1ccccc1 | inactive: 3.28%
38 | Oc1c(C(c2ccccc2)N2CCCC2)sc2nc(-c3ccco3)nn12 (stereo unspecified) | inactive: -12.6%
39 | CCOC(=O)c1c(C)[nH]c(CCC(=O)NCc2cc(OC)c(OC)c(OC)c2)c1C | inactive: -11.3%
40 | COc1cc(-n2c(=O)c3ccccc3n(Cc3cccc(Cl)c3)c2=O)cc(OC)c1OC | inactive: -2.21%
41 | COc1ccc(CCN2C(=O)N(c3cccc(OC)c3)C(=O)C2CC(=O)Nc2ccccc2)cc1 (stereo unspecified) | inactive: -4.91%
42 | Cc1cc2oc(=O)c(CC(=O)O)c(C)c2c2occ(-c3ccccc3)c12 | inactive: 7.87%
43 | Cc1ccc(C)c(Cn2c(=O)n(-c3ccccc3)c(=O)c3c4c(sc32)CCCC4)c1 | inactive: -15.2%
44 | COc1ccc(CNC(=O)CN2C(=O)CCn3nc(-c4cn(C)c5ccccc45)cc32)cc1 | inactive: 24.1%
45 | CCNC(=O)CC1C(=O)N(c2ccc(C)cc2)C(=O)N1CCOC (stereo unspecified) | inactive: -3.61%
46 | O=C(c1ccc2c(c1)N(Cc1cccc(Cl)c1)C(=O)c1ccccc1S2=O)N1CCC(Cc2ccccc2)CC1 (stereo unspecified) | inactive: -27.4%
47 | CC[N+](CC)(CC)CCOC(=O)C(C1CCCC1)C1CCCC1 | inactive: 5.39%
48 | O=C(c1cccc([N+](=O)[O-])c1)N1CCN(c2ccc(Nc3ccccc3)nn2)CC1 | inactive: -23.5%
49 | COc1nnc(-c2ccc(N3CCCCC3)c(NC(=O)c3ccc(C)cc3)c2)c2ccccc12 | inactive: 12.3%
50 | CCn1nc(C)c2c(-c3ccccc3)cc(=O)n(C(C)C(=O)NCCc3ccc(Cl)cc3)c21 (stereo unspecified) | inactive: -21.5%
51 | O=S(=O)(c1ccc(-c2cnc(C3CC3)o2)cc1)N1CCN(c2ccc(F)cc2)CC1 | inactive: 1.99%
